# This is one part of the list.
# Legend:
# Test in all cases: glycan array binding signal (z-score within array); higher = stronger binding
# Details in all cases: glycan notation: IUPAC condensed, linker removed
# Fuc(a1-2)Gal = target: Fuc(a1-2)Gal
# Method in brief: (§1)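 From the Consortium for Functional Glycomics database, 3228 arrays were curated, keeping only those whose protein sequence was available. Binding is given as a within-array Z-score averaged across arrays sharing a protein sequence and across linkers. Negative Z-scores can be read as non-binding.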
# Fuc(a1-2)Gal(b1-3)GalNAc = target: Fuc(a1-2)Gal(b1-3)GalNAc
# Method in brief: as §1
# [1] = target: Fuc(a1-2)Gal(b1-3)GalNAc(b1-3)Gal
# Method in brief: as §1
# [2] = target: Fuc(a1-2)Gal(b1-3)GalNAc(b1-3)Gal(a1-4)Gal(b1-4)Glc
# Method in brief: as §1
# [3] = target: Fuc(a1-2)Gal(b1-3)GalNAc(b1-4)[Neu5Ac(a2-3)]Gal(b1-4)Glc
# Method in brief: as §1
# Fuc(a1-2)Gal(b1-3)GlcNAc = target: Fuc(a1-2)Gal(b1-3)GlcNAc
# Method in brief: as §1
# [4] = target: Fuc(a1-2)Gal(b1-3)GlcNAc(b1-3)Gal(b1-4)Glc
# Method in brief: as §1
# [5] = target: Fuc(a1-2)Gal(b1-3)[Fuc(a1-4)]GlcNAc
# Method in brief: as §1
# Fuc(a1-2)Gal(b1-4)Glc = target: Fuc(a1-2)Gal(b1-4)Glc
# Method in brief: as §1
# Fuc(a1-2)Gal(b1-4)Glc6S = target: Fuc(a1-2)Gal(b1-4)Glc6S
# Method in brief: as §1
# Fuc(a1-2)Gal(b1-4)GlcNAc = target: Fuc(a1-2)Gal(b1-4)GlcNAc
# Method in brief: as §1
# [6] = target: Fuc(a1-2)Gal(b1-4)GlcNAc(b1-3)Gal(b1-4)GlcNAc
# Method in brief: as §1
# [7] = target: Fuc(a1-2)Gal(b1-4)GlcNAc(b1-3)Gal(b1-4)GlcNAc(b1-3)Gal(b1-4)GlcNAc
# Method in brief: as §1
# [8] = target: Fuc(a1-2)Gal(b1-4)GlcNAc6S
# Method in brief: as §1
# [9] = target: Fuc(a1-2)Gal(b1-4)[Fuc(a1-3)]GlcNAc
# Method in brief: as §1
# [10] = target: Fuc(a1-2)Gal(b1-4)[Fuc(a1-3)]GlcNAc(b1-3)Gal(b1-4)[Fuc(a1-3)]GlcNAc
# Method in brief: as §1
# [11] = target: Fuc(a1-2)Gal(b1-4)[Fuc(a1-3)]GlcNAc(b1-3)Gal(b1-4)[Fuc(a1-3)]GlcNAc(b1-3)Gal(b1-4)[Fuc(a1-3)]GlcNAc
# Method in brief: as §1
# Fuc(a1-2)Gal6S(b1-4)Glc = target: Fuc(a1-2)Gal6S(b1-4)Glc
# Method in brief: as §1
# [12] = target: Fuc(a1-2)Gal6S(b1-4)Glc6S
# Method in brief: as §1
# [13] = target: Fuc(a1-2)Gal6S(b1-4)GlcNAc
# Method in brief: as §1
# Fuc(a1-2)[Gal(a1-3)]Gal = target: Fuc(a1-2)[Gal(a1-3)]Gal
# Method in brief: as §1
# [14] = target: Fuc(a1-2)[Gal(a1-3)]Gal(b1-3)GlcNAc
# Method in brief: as §1
# [15] = target: Fuc(a1-2)[Gal(a1-3)]Gal(b1-4)Glc
# Method in brief: as §1
# [16] = target: Fuc(a1-2)[Gal(a1-3)]Gal(b1-4)GlcNAc
# Method in brief: as §1
# [17] = target: Fuc(a1-2)[Gal(a1-3)]Gal(b1-4)[Fuc(a1-3)]GlcNAc
# Method in brief: as §1
# [18] = target: Fuc(a1-2)[Gal(a1-4)]Gal(b1-4)GlcNAc
# Method in brief: as §1
# [19] = target: Fuc(a1-2)[GalNAc(a1-3)]Gal
# Method in brief: as §1
# [20] = target: Fuc(a1-2)[GalNAc(a1-3)]Gal(b1-3)GlcNAc
# Method in brief: as §1
# [21] = target: Fuc(a1-2)[GalNAc(a1-3)]Gal(b1-4)Glc
# Method in brief: as §1
# [22] = target: Fuc(a1-2)[GalNAc(a1-3)]Gal(b1-4)GlcNAc
# Method in brief: as §1
binder,measurement,setting,value
"MUC1-SEA-mFcIgG2a (Homo sapiens), P15941 (SEA domain only) (protein) DAAQPARRAVRSSSELTSEQKLISEEDLSRLVHNGTSARATTTPASKSTPFSIPSHHSDTPTTLASHSTKTDASSTHHSTVPPLTSSNHSTSPQLSTGVSFFFLSFHISNLQFNSSLEDPSTDYYQELQRDISEMFLQIYKQGGFLGLSNIKFRPGSVVVQLTLAFREGTINVHDVETQFNQYKTEAASRYNLTISDASVSDVPFPFSAQSGSDDDDKALEPRGPTIKPCPPCKCPAPNLLGGPSVFIFPPKIKDVLMISLSPIVTCVVVDVSEDDPDVQISWFVNNVEVHTAQTQTHREDYNSTLRVVSALPIQHQDWMSGKEFKCKVNNKDLPAPIERTISKPKGSVRAPQVYVLPPPEEEMTKKQVTLTCMVTDFMPEDIYVEWTNNGKTELNYKNTEPVLDSDGSYFMYSKLRVEKKNWVERNSYSCSVVHEGLHNHHTTKSFSRTPGKHHHHH",glycan array binding signal (z-score),Fuc(a1-2)Gal,-0.228
same,glycan array binding signal (z-score),Fuc(a1-2)Gal(b1-3)GalNAc,-0.514
same,glycan array binding signal (z-score),[1],7.39
same,glycan array binding signal (z-score),[2],-0.439
same,glycan array binding signal (z-score),[3],-0.138
same,glycan array binding signal (z-score),Fuc(a1-2)Gal(b1-3)GlcNAc,0.04
same,glycan array binding signal (z-score),[4],-0.293
same,glycan array binding signal (z-score),[5],-0.241
same,glycan array binding signal (z-score),Fuc(a1-2)Gal(b1-4)Glc,0.163
same,glycan array binding signal (z-score),Fuc(a1-2)Gal(b1-4)Glc6S,-0.327
same,glycan array binding signal (z-score),Fuc(a1-2)Gal(b1-4)GlcNAc,-0.377
same,glycan array binding signal (z-score),[6],-0.323
same,glycan array binding signal (z-score),[7],-0.213
same,glycan array binding signal (z-score),[8],-0.347
same,glycan array binding signal (z-score),[9],-0.269
same,glycan array binding signal (z-score),[10],-0.477
same,glycan array binding signal (z-score),[11],0.459
same,glycan array binding signal (z-score),Fuc(a1-2)Gal6S(b1-4)Glc,0.033
same,glycan array binding signal (z-score),[12],1.99
same,glycan array binding signal (z-score),[13],0.294
same,glycan array binding signal (z-score),Fuc(a1-2)[Gal(a1-3)]Gal,0.424
same,glycan array binding signal (z-score),[14],-0.155
same,glycan array binding signal (z-score),[15],0.103
same,glycan array binding signal (z-score),[16],-0.528
same,glycan array binding signal (z-score),[17],0.281
same,glycan array binding signal (z-score),[18],0.211
same,glycan array binding signal (z-score),[19],-0.446
same,glycan array binding signal (z-score),[20],-0.439
same,glycan array binding signal (z-score),[21],-0.086
same,glycan array binding signal (z-score),[22],-0.428
